# Reference: paper PMC12820563, “FoxP3 forms a head-to-head dimer in vivo and stabilizes its multimerization on adjacent microsatellites”
# This is one part of the list.
# Biological target: T1, MBP-FoxP1dN (Mus musculus, UniProt P58462 326-579)
# T1 sequence: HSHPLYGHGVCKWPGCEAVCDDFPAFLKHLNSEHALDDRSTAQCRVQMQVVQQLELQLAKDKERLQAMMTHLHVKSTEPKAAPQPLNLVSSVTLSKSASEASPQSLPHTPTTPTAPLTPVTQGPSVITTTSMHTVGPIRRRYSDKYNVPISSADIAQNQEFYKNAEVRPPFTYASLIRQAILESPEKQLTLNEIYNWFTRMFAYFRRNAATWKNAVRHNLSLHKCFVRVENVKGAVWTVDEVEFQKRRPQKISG
# Test: PD-seq (MBP pull-down with sequencing); 20 mM Tris-HCl pH 7.5, 100 mM NaCl, 1.5 mM MgCl2, 0.4 uM protein, 0.1 uM dsDNA library, 30 min, room temperature, amylose pull-down; high values mean tight binding
# Settings: protein: recombinant; tags: His6-MBP; chain copies: 2; dsDNA, one strand shown
# Outline: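 E. coli-expressed mouse FoxP3 or FoxP1 fragment, N-terminus removed and tagged with His6-MBP, was used at 0.4 µM against 0.1 µM of a Klenow-filled degenerate double-stranded DNA library. After 30 min at room temperature in Tris pH 7.5 buffer with NaCl and MgCl2, complexes were pulled down on amylose resin and washed three times. Binding is pull-down over input reads-per-million enrichment from pooled replicates of the proteinase K-released, PCR-barcoded, Illumina-sequenced DNA.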
row,Sequence,binding signal
1,GATGATTGTTCTCCCAGCTGATGAATTGGCAAGATCGAGTAAACAAATTTTCCTAATCTTTCTGTTCAAGCGCCATCTAC,0.837 RPM ratio (pull-down/input)
2,GATGATTGTTCTCCCAGCTGATGAATTGGCGTGGTCGAGTAAACAAATTTTCCTAATCTTTCTGTTCAAGCGCCATCTAC,0.863 RPM ratio (pull-down/input)
3,GATGATTGTTCTCCCAGCTGATGAATTGACGTAATCGAGTAAACAAATTTTCCTAATCTTTCTGTTCAAGCGCCATCTAC,1.75 RPM ratio (pull-down/input)
4,GATGATTGTTCTCCCAGCTGATGAATTAGAATGGTCGAGTAAACAAATTTTCCTAATCTTTCTGTTCAAGCGCCATCTAC,0.88 RPM ratio (pull-down/input)
5,GATGATTGTTCTCCCAGCTGATGAATTGTTAGCATCGAGTAAACAAATTTTCCTAATCTTTCTGTTCAAGCGCCATCTAC,1.65 RPM ratio (pull-down/input)
6,GATGATTGTTCTCCCAGCTGATGAATTTGCAGGCTCGAGTAAACAAATTTTCCTAATCTTTCTGTTCAAGCGCCATCTAC,0.944 RPM ratio (pull-down/input)
7,GATGATTGTTCTCCCAGCTGATGAATTATCAAAATCGAGTAAACAAATTTTCCTAATCTTTCTGTTCAAGCGCCATCTAC,1.22 RPM ratio (pull-down/input)
8,GATGATTGTTCTCCCAGCTGATGAATTCACATGCTCGAGTAAACAAATTTTCCTAATCTTTCTGTTCAAGCGCCATCTAC,0.924 RPM ratio (pull-down/input)
9,GATGATTGTTCTCCCAGCTGATGAATTCCTTAATTCGAGTAAACAAATTTTCCTAATCTTTCTGTTCAAGCGCCATCTAC,0.935 RPM ratio (pull-down/input)
10,GATGATTGTTCTCCCAGCTGATGAATTCACCCCCTCGAGTAAACAAATTTTCCTAATCTTTCTGTTCAAGCGCCATCTAC,0.801 RPM ratio (pull-down/input)
11,GATGATTGTTCTCCCAGCTGATGAATTTCGTGCCTCGAGTAAACAAATTTTCCTAATCTTTCTGTTCAAGCGCCATCTAC,0.913 RPM ratio (pull-down/input)
12,GATGATTGTTCTCCCAGCTGATGAATTATACCTATCGAGTAAACAAATTTTCCTAATCTTTCTGTTCAAGCGCCATCTAC,0.961 RPM ratio (pull-down/input)
13,GATGATTGTTCTCCCAGCTGATGAATTTCTCCAGTCGAGTAAACAAATTTTCCTAATCTTTCTGTTCAAGCGCCATCTAC,0.845 RPM ratio (pull-down/input)
14,GATGATTGTTCTCCCAGCTGATGAATTGATCCTGTCGAGTAAACAAATTTTCCTAATCTTTCTGTTCAAGCGCCATCTAC,0.905 RPM ratio (pull-down/input)
15,GATGATTGTTCTCCCAGCTGATGAATTTGAAGGTTCGAGTAAACAAATTTTCCTAATCTTTCTGTTCAAGCGCCATCTAC,0.875 RPM ratio (pull-down/input)
16,GATGATTGTTCTCCCAGCTGATGAATTGTTTTCGTCGAGTAAACAAATTTTCCTAATCTTTCTGTTCAAGCGCCATCTAC,2.02 RPM ratio (pull-down/input)
17,GATGATTGTTCTCCCAGCTGATGAATTTATTTCTTCGAGTAAACAAATTTTCCTAATCTTTCTGTTCAAGCGCCATCTAC,1.29 RPM ratio (pull-down/input)
18,GATGATTGTTCTCCCAGCTGATGAATTCTAAATGTCGAGTAAACAAATTTTCCTAATCTTTCTGTTCAAGCGCCATCTAC,0.99 RPM ratio (pull-down/input)
19,GATGATTGTTCTCCCAGCTGATGAATTTGAGATATCGAGTAAACAAATTTTCCTAATCTTTCTGTTCAAGCGCCATCTAC,0.884 RPM ratio (pull-down/input)
20,GATGATTGTTCTCCCAGCTGATGAATTCACCTTGTCGAGTAAACAAATTTTCCTAATCTTTCTGTTCAAGCGCCATCTAC,0.886 RPM ratio (pull-down/input)
21,GATGATTGTTCTCCCAGCTGATGAATTCACTCACTCGAGTAAACAAATTTTCCTAATCTTTCTGTTCAAGCGCCATCTAC,0.88 RPM ratio (pull-down/input)

row,Sequence,binding signal
1,GATGATTGTTCTCCCAGCTGATGAATTTCATAAGTCGAGTAAACAAATTTTCCTAATCTTTCTGTTCAAGCGCCATCTAC,0.837 RPM ratio (pull-down/input)
2,GATGATTGTTCTCCCAGCTGATGAATTGCTGCATTCGAGTAAACAAATTTTCCTAATCTTTCTGTTCAAGCGCCATCTAC,1.32 RPM ratio (pull-down/input)
3,GATGATTGTTCTCCCAGCTGATGAATTGTAAGAGTCGAGTAAACAAATTTTCCTAATCTTTCTGTTCAAGCGCCATCTAC,0.892 RPM ratio (pull-down/input)
4,GATGATTGTTCTCCCAGCTGATGAATTAACTTTGTCGAGTAAACAAATTTTCCTAATCTTTCTGTTCAAGCGCCATCTAC,0.902 RPM ratio (pull-down/input)
5,GATGATTGTTCTCCCAGCTGATGAATTCTGGCGGTCGAGTAAACAAATTTTCCTAATCTTTCTGTTCAAGCGCCATCTAC,0.755 RPM ratio (pull-down/input)
6,GATGATTGTTCTCCCAGCTGATGAATTAGTGGCTTCGAGTAAACAAATTTTCCTAATCTTTCTGTTCAAGCGCCATCTAC,0.967 RPM ratio (pull-down/input)
7,GATGATTGTTCTCCCAGCTGATGAATTTCCCTTTTCGAGTAAACAAATTTTCCTAATCTTTCTGTTCAAGCGCCATCTAC,0.942 RPM ratio (pull-down/input)
8,GATGATTGTTCTCCCAGCTGATGAATTGACCTCATCGAGTAAACAAATTTTCCTAATCTTTCTGTTCAAGCGCCATCTAC,0.954 RPM ratio (pull-down/input)
9,GATGATTGTTCTCCCAGCTGATGAATTCATCCACTCGAGTAAACAAATTTTCCTAATCTTTCTGTTCAAGCGCCATCTAC,0.832 RPM ratio (pull-down/input)
10,GATGATTGTTCTCCCAGCTGATGAATTGCAAAGTTCGAGTAAACAAATTTTCCTAATCTTTCTGTTCAAGCGCCATCTAC,1.3 RPM ratio (pull-down/input)
11,GATGATTGTTCTCCCAGCTGATGAATTGCCGCCATCGAGTAAACAAATTTTCCTAATCTTTCTGTTCAAGCGCCATCTAC,0.999 RPM ratio (pull-down/input)
12,GATGATTGTTCTCCCAGCTGATGAATTCCCCGTATCGAGTAAACAAATTTTCCTAATCTTTCTGTTCAAGCGCCATCTAC,0.89 RPM ratio (pull-down/input)
13,GATGATTGTTCTCCCAGCTGATGAATTTTTTCATTCGAGTAAACAAATTTTCCTAATCTTTCTGTTCAAGCGCCATCTAC,1.01 RPM ratio (pull-down/input)
14,GATGATTGTTCTCCCAGCTGATGAATTTTGACGTTCGAGTAAACAAATTTTCCTAATCTTTCTGTTCAAGCGCCATCTAC,1.01 RPM ratio (pull-down/input)
15,GATGATTGTTCTCCCAGCTGATGAATTATACGGGTCGAGTAAACAAATTTTCCTAATCTTTCTGTTCAAGCGCCATCTAC,0.858 RPM ratio (pull-down/input)
16,GATGATTGTTCTCCCAGCTGATGAATTGCTCCAGTCGAGTAAACAAATTTTCCTAATCTTTCTGTTCAAGCGCCATCTAC,0.965 RPM ratio (pull-down/input)
17,GATGATTGTTCTCCCAGCTGATGAATTACTAAACTCGAGTAAACAAATTTTCCTAATCTTTCTGTTCAAGCGCCATCTAC,1.18 RPM ratio (pull-down/input)
18,GATGATTGTTCTCCCAGCTGATGAATTACTGCTATCGAGTAAACAAATTTTCCTAATCTTTCTGTTCAAGCGCCATCTAC,1.09 RPM ratio (pull-down/input)
19,GATGATTGTTCTCCCAGCTGATGAATTTACTCTATCGAGTAAACAAATTTTCCTAATCTTTCTGTTCAAGCGCCATCTAC,1.28 RPM ratio (pull-down/input)
20,GATGATTGTTCTCCCAGCTGATGAATTTCCCTGTTCGAGTAAACAAATTTTCCTAATCTTTCTGTTCAAGCGCCATCTAC,0.806 RPM ratio (pull-down/input)
21,GATGATTGTTCTCCCAGCTGATGAATTTACTTTTTCGAGTAAACAAATTTTCCTAATCTTTCTGTTCAAGCGCCATCTAC,1.41 RPM ratio (pull-down/input)

row,Sequence,binding signal
1,GATGATTGTTCTCCCAGCTGATGAATTCGGTGGATCGAGTAAACAAATTTTCCTAATCTTTCTGTTCAAGCGCCATCTAC,0.906 RPM ratio (pull-down/input)
2,GATGATTGTTCTCCCAGCTGATGAATTTAACACTTCGAGTAAACAAATTTTCCTAATCTTTCTGTTCAAGCGCCATCTAC,0.926 RPM ratio (pull-down/input)
3,GATGATTGTTCTCCCAGCTGATGAATTGCCTTACTCGAGTAAACAAATTTTCCTAATCTTTCTGTTCAAGCGCCATCTAC,1.01 RPM ratio (pull-down/input)
4,GATGATTGTTCTCCCAGCTGATGAATTAGTTGTGTCGAGTAAACAAATTTTCCTAATCTTTCTGTTCAAGCGCCATCTAC,1.22 RPM ratio (pull-down/input)
5,GATGATTGTTCTCCCAGCTGATGAATTTTATTAGTCGAGTAAACAAATTTTCCTAATCTTTCTGTTCAAGCGCCATCTAC,1.28 RPM ratio (pull-down/input)
6,GATGATTGTTCTCCCAGCTGATGAATTGTGTCTATCGAGTAAACAAATTTTCCTAATCTTTCTGTTCAAGCGCCATCTAC,1.37 RPM ratio (pull-down/input)
7,GATGATTGTTCTCCCAGCTGATGAATTGATGGATTCGAGTAAACAAATTTTCCTAATCTTTCTGTTCAAGCGCCATCTAC,0.971 RPM ratio (pull-down/input)
8,GATGATTGTTCTCCCAGCTGATGAATTTCAAACGTCGAGTAAACAAATTTTCCTAATCTTTCTGTTCAAGCGCCATCTAC,0.804 RPM ratio (pull-down/input)
9,GATGATTGTTCTCCCAGCTGATGAATTGGTGATGTCGAGTAAACAAATTTTCCTAATCTTTCTGTTCAAGCGCCATCTAC,1.25 RPM ratio (pull-down/input)
10,GATGATTGTTCTCCCAGCTGATGAATTAGTTAAATCGAGTAAACAAATTTTCCTAATCTTTCTGTTCAAGCGCCATCTAC,1.03 RPM ratio (pull-down/input)
11,GATGATTGTTCTCCCAGCTGATGAATTTTAATTATCGAGTAAACAAATTTTCCTAATCTTTCTGTTCAAGCGCCATCTAC,1.47 RPM ratio (pull-down/input)
12,GATGATTGTTCTCCCAGCTGATGAATTCCTCGATTCGAGTAAACAAATTTTCCTAATCTTTCTGTTCAAGCGCCATCTAC,0.848 RPM ratio (pull-down/input)
13,GATGATTGTTCTCCCAGCTGATGAATTAATCCCGTCGAGTAAACAAATTTTCCTAATCTTTCTGTTCAAGCGCCATCTAC,0.837 RPM ratio (pull-down/input)
14,GATGATTGTTCTCCCAGCTGATGAATTTTAATAGTCGAGTAAACAAATTTTCCTAATCTTTCTGTTCAAGCGCCATCTAC,0.968 RPM ratio (pull-down/input)
15,GATGATTGTTCTCCCAGCTGATGAATTACAGAATTCGAGTAAACAAATTTTCCTAATCTTTCTGTTCAAGCGCCATCTAC,1.22 RPM ratio (pull-down/input)
16,GATGATTGTTCTCCCAGCTGATGAATTTCCCACATCGAGTAAACAAATTTTCCTAATCTTTCTGTTCAAGCGCCATCTAC,1.05 RPM ratio (pull-down/input)
17,GATGATTGTTCTCCCAGCTGATGAATTGTGCGTATCGAGTAAACAAATTTTCCTAATCTTTCTGTTCAAGCGCCATCTAC,1.22 RPM ratio (pull-down/input)
18,GATGATTGTTCTCCCAGCTGATGAATTAAAGCCGTCGAGTAAACAAATTTTCCTAATCTTTCTGTTCAAGCGCCATCTAC,0.934 RPM ratio (pull-down/input)
19,GATGATTGTTCTCCCAGCTGATGAATTAGTCGGTTCGAGTAAACAAATTTTCCTAATCTTTCTGTTCAAGCGCCATCTAC,0.902 RPM ratio (pull-down/input)
20,GATGATTGTTCTCCCAGCTGATGAATTGCGTGGATCGAGTAAACAAATTTTCCTAATCTTTCTGTTCAAGCGCCATCTAC,0.968 RPM ratio (pull-down/input)
21,GATGATTGTTCTCCCAGCTGATGAATTCAGCTGATCGAGTAAACAAATTTTCCTAATCTTTCTGTTCAAGCGCCATCTAC,0.862 RPM ratio (pull-down/input)
